From the supplement of paper PMC8728848
The other results are listed elsewhere or left out.

What was measured:
Assay in all cases: glycan array binding signal (z-score within array); higher = stronger binding
Settings in all cases: glycan notation: IUPAC condensed, linker removed
[1] = target: Gal(b1-4)GlcNAc(b1-2)[Gal(b1-4)GlcNAc(b1-6)]Man(a1-6)[GlcNAc(b1-4)][Gal(b1-4)GlcNAc(b1-2)Man(a1-3)]Man(b1-4)GlcNAc(b1-4)GlcNAc
Summary of the method: (§1)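 Columns mapping to the same glycan were averaged after glycan names were converted to IUPAC-condensed notation. The data come from 3228 arrays in the Consortium for Functional Glycomics database, limited to those with an available protein sequence. Binding is reported as a within-array Z-score averaged across arrays of one protein sequence and across linkers.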

[2] = target: Gal(b1-4)GlcNAc(b1-2)[Gal(b1-4)GlcNAc(b1-6)]Man(a1-6)[GlcNAc(b1-4)][Gal(b1-4)GlcNAc(b1-2)[Gal(b1-4)GlcNAc(b1-4)]Man(a1-3)]Man(b1-4)GlcNAc(b1-4)[Fuc(a1-6)]GlcNAc
Summary of the method: as §1

[3] = target: Gal(b1-4)GlcNAc(b1-3)Gal(b1-3)GalNAc
Summary of the method: as §1

[4] = target: Gal(b1-4)GlcNAc(b1-3)Gal(b1-3)GlcNAc
Summary of the method: as §1

[5] = target: Gal(b1-4)GlcNAc(b1-3)Gal(b1-4)Glc
Summary of the method: as §1

[6] = target: Gal(b1-4)GlcNAc(b1-3)Gal(b1-4)GlcNAc
Summary of the method: as §1

[7] = target: Gal(b1-4)GlcNAc(b1-3)Gal(b1-4)GlcNAc(b1-2)Man(a1-3)[Gal(b1-4)GlcNAc(b1-3)Gal(b1-4)GlcNAc(b1-2)Man(a1-6)]Man(b1-4)GlcNAc(b1-4)GlcNAc
Summary of the method: as §1

[8] = target: Gal(b1-4)GlcNAc(b1-3)Gal(b1-4)GlcNAc(b1-2)Man(a1-3)[Gal(b1-4)GlcNAc(b1-3)Gal(b1-4)GlcNAc(b1-2)Man(a1-6)]Man(b1-4)GlcNAc(b1-4)[Fuc(a1-6)]GlcNAc
Summary of the method: as §1

[9] = target: Gal(b1-4)GlcNAc(b1-3)Gal(b1-4)GlcNAc(b1-2)[Gal(b1-4)GlcNAc(b1-3)Gal(b1-4)GlcNAc(b1-6)]Man(a1-6)[Gal(b1-4)GlcNAc(b1-3)Gal(b1-4)GlcNAc(b1-2)Man(a1-3)]Man(b1-4)GlcNAc(b1-4)GlcNAc
Summary of the method: as §1

[10] = target: Gal(b1-4)GlcNAc(b1-3)Gal(b1-4)GlcNAc(b1-2)[Gal(b1-4)GlcNAc(b1-3)Gal(b1-4)GlcNAc(b1-6)]Man(a1-6)[Gal(b1-4)GlcNAc(b1-3)Gal(b1-4)GlcNAc(b1-2)Man(a1-3)]Man(b1-4)GlcNAc(b1-4)[Fuc(a1-6)]GlcNAc
Summary of the method: as §1

[11] = target: Gal(b1-4)GlcNAc(b1-3)Gal(b1-4)GlcNAc(b1-3)Gal(b1-4)GlcNAc
Summary of the method: as §1

[12] = target: Gal(b1-4)GlcNAc(b1-3)Gal(b1-4)GlcNAc(b1-3)Gal(b1-4)GlcNAc(b1-2)Man(a1-3)[Gal(b1-4)GlcNAc(b1-3)Gal(b1-4)GlcNAc(b1-3)Gal(b1-4)GlcNAc(b1-2)Man(a1-6)]Man(b1-4)GlcNAc(b1-4)GlcNAc
Summary of the method: as §1

[13] = target: Gal(b1-4)GlcNAc(b1-3)Gal(b1-4)GlcNAc(b1-3)Gal(b1-4)GlcNAc(b1-2)Man(a1-3)[Gal(b1-4)GlcNAc(b1-3)Gal(b1-4)GlcNAc(b1-3)Gal(b1-4)GlcNAc(b1-2)Man(a1-6)]Man(b1-4)GlcNAc(b1-4)[Fuc(a1-6)]GlcNAc
Summary of the method: as §1

[14] = target: Gal(b1-4)GlcNAc(b1-3)Gal(b1-4)GlcNAc(b1-3)Gal(b1-4)GlcNAc(b1-2)[Gal(b1-4)GlcNAc(b1-3)Gal(b1-4)GlcNAc(b1-3)Gal(b1-4)GlcNAc(b1-6)]Man(a1-6)[Gal(b1-4)GlcNAc(b1-3)Gal(b1-4)GlcNAc(b1-3)Gal(b1-4)GlcNAc(b1-2)Man(a1-3)]Man(b1-4)GlcNAc(b1-4)[Fuc(a1-6)]GlcNAc
Summary of the method: as §1

[15] = target: Gal(b1-4)GlcNAc(b1-3)Gal(b1-4)GlcNAc(b1-3)Gal(b1-4)GlcNAc(b1-3)Gal(b1-4)GlcNAc(b1-2)Man(a1-3)[Gal(b1-4)GlcNAc(b1-3)Gal(b1-4)GlcNAc(b1-3)Gal(b1-4)GlcNAc(b1-3)Gal(b1-4)GlcNAc(b1-2)Man(a1-6)]Man(b1-4)GlcNAc(b1-4)GlcNAc
Summary of the method: as §1

[16] = target: Gal(b1-4)GlcNAc(b1-3)Gal(b1-4)GlcNAc(b1-3)Gal(b1-4)GlcNAc(b1-3)Gal(b1-4)GlcNAc(b1-2)Man(a1-3)[Gal(b1-4)GlcNAc(b1-3)Gal(b1-4)GlcNAc(b1-3)Gal(b1-4)GlcNAc(b1-3)Gal(b1-4)GlcNAc(b1-2)Man(a1-6)]Man(b1-4)GlcNAc(b1-4)[Fuc(a1-6)]GlcNAc
Summary of the method: as §1

[17] = target: Gal(b1-4)GlcNAc(b1-3)Gal(b1-4)GlcNAc(b1-3)Gal(b1-4)GlcNAc(b1-3)Gal(b1-4)GlcNAc(b1-2)[Gal(b1-4)GlcNAc(b1-3)Gal(b1-4)GlcNAc(b1-3)Gal(b1-4)GlcNAc(b1-3)Gal(b1-4)GlcNAc(b1-6)]Man(a1-6)[Gal(b1-4)GlcNAc(b1-3)Gal(b1-4)GlcNAc(b1-3)Gal(b1-4)GlcNAc(b1-3)Gal(b1-4)GlcNAc(b1-2)Man(a1-3)]Man(b1-4)GlcNAc(b1-4)[Fuc(a1-6)]GlcNAc
Summary of the method: as §1

[18] = target: Gal(b1-4)GlcNAc(b1-3)Gal(b1-4)GlcNAc(b1-3)Gal(b1-4)GlcNAc(b1-3)Gal(b1-4)GlcNAc(b1-3)Gal(b1-4)GlcNAc(b1-2)Man(a1-3)[Gal(b1-4)GlcNAc(b1-3)Gal(b1-4)GlcNAc(b1-3)Gal(b1-4)GlcNAc(b1-3)Gal(b1-4)GlcNAc(b1-3)Gal(b1-4)GlcNAc(b1-2)Man(a1-6)]Man(b1-4)GlcNAc(b1-4)GlcNAc
Summary of the method: as §1

[19] = target: Gal(b1-4)GlcNAc(b1-3)Gal(b1-4)GlcNAc(b1-3)Gal(b1-4)GlcNAc(b1-3)Gal(b1-4)GlcNAc(b1-3)Gal(b1-4)GlcNAc(b1-2)Man(a1-3)[Gal(b1-4)GlcNAc(b1-3)Gal(b1-4)GlcNAc(b1-3)Gal(b1-4)GlcNAc(b1-3)Gal(b1-4)GlcNAc(b1-3)Gal(b1-4)GlcNAc(b1-2)Man(a1-6)]Man(b1-4)GlcNAc(b1-4)[Fuc(a1-6)]GlcNAc
Summary of the method: as §1

[20] = target: Gal(b1-4)GlcNAc(b1-3)Gal(b1-4)GlcNAc(b1-3)Gal(b1-4)GlcNAc(b1-3)Gal(b1-4)GlcNAc(b1-3)Gal(b1-4)GlcNAc(b1-2)[Gal(b1-4)GlcNAc(b1-3)Gal(b1-4)GlcNAc(b1-3)Gal(b1-4)GlcNAc(b1-3)Gal(b1-4)GlcNAc(b1-3)Gal(b1-4)GlcNAc(b1-6)]Man(a1-6)[Gal(b1-4)GlcNAc(b1-3)Gal(b1-4)GlcNAc(b1-3)Gal(b1-4)GlcNAc(b1-3)Gal(b1-4)GlcNAc(b1-3)Gal(b1-4)GlcNAc(b1-2)Man(a1-3)]Man(b1-4)GlcNAc(b1-4)[Fuc(a1-6)]GlcNAc
Summary of the method: as §1

[21] = target: Gal(b1-4)GlcNAc(b1-3)Gal(b1-4)GlcNAc(b1-3)Gal(b1-4)GlcNAc(b1-3)Gal(b1-4)GlcNAc(b1-3)Gal(b1-4)GlcNAc(b1-3)Gal(b1-4)GlcNAc(b1-2)Man(a1-3)[Gal(b1-4)GlcNAc(b1-3)Gal(b1-4)GlcNAc(b1-3)Gal(b1-4)GlcNAc(b1-3)Gal(b1-4)GlcNAc(b1-3)Gal(b1-4)GlcNAc(b1-3)Gal(b1-4)GlcNAc(b1-2)Man(a1-6)]Man(b1-4)GlcNAc(b1-4)GlcNAc
Summary of the method: as §1

[22] = target: Gal(b1-4)GlcNAc(b1-3)Gal(b1-4)GlcNAc(b1-3)GalNAc
Summary of the method: as §1

[23] = target: Gal(b1-4)GlcNAc(b1-3)Gal(b1-4)GlcNAc(b1-3)[Gal(b1-4)GlcNAc(b1-3)Gal(b1-4)GlcNAc(b1-6)]GalNAc
Summary of the method: as §1

[24] = target: Gal(b1-4)GlcNAc(b1-3)Gal(b1-4)GlcNAc(b1-6)[Gal(b1-3)]GalNAc
Summary of the method: as §1

[25] = target: Gal(b1-4)GlcNAc(b1-3)Gal(b1-4)[Fuc(a1-3)]GlcNAc(b1-3)Gal(b1-4)[Fuc(a1-3)]GlcNAc
Summary of the method: as §1

[26] = target: Gal(b1-4)GlcNAc(b1-3)GalNAc
Summary of the method: as §1

[27] = target: Gal(b1-4)GlcNAc(b1-3)[Fuc(a1-3)GlcNAc(b1-6)]Gal(b1-4)Glc
Summary of the method: as §1

[28] = target: Gal(b1-4)GlcNAc(b1-3)[Gal(b1-4)GlcNAc(b1-6)]Gal(b1-4)GlcNAc
Summary of the method: as §1

[29] = target: Gal(b1-4)GlcNAc(b1-3)[GlcNAc(b1-6)]Gal(b1-4)GlcNAc
Summary of the method: as §1

[30] = target: Gal(b1-4)GlcNAc(b1-6)Gal(b1-4)GlcNAc
Summary of the method: as §1

[31] = target: Gal(b1-4)GlcNAc(b1-6)GalNAc
Summary of the method: as §1

[32] = target: Gal(b1-4)GlcNAc(b1-6)[Gal(b1-3)]GalNAc
Summary of the method: as §1

[33] = target: Gal(b1-4)GlcNAc(b1-6)[Gal(b1-4)GlcNAc(b1-3)]GalNAc
Summary of the method: as §1

Gal(b1-4)GlcNAc6P = target: Gal(b1-4)GlcNAc6P
Summary of the method: as §1

Gal(b1-6)Gal = target: Gal(b1-6)Gal
Summary of the method: as §1

Gal3S(b1-3)GalNAc = target: Gal3S(b1-3)GalNAc
Summary of the method: as §1

Gal3S(b1-3)GlcNAc = target: Gal3S(b1-3)GlcNAc
Summary of the method: as §1

[34] = target: Gal3S(b1-3)[Fuc(a1-4)]GlcNAc
Summary of the method: as §1

B1: Cohesin-mDC-ASGPR (Macaca mulatta) (protein)
chain: LDITSHHHHHHDDLDAVRIKVDTVNAKPGDTVRIPVRFSGIPSKGIANCDFVYSYDPNVLEIIEIEPGDIIVDPNPDKSFDTAVYPDRKIIVFLFAEDSGTGAYAITKDGVFATIVAKVKEGAPNGLSVIKFVEVGGFANNDLVEQKTQFFDGGVNVGDTTEPATPTTPVTTPTTTDDLDAASSQNSKFQRDLVTLRTDFSNFTSNTVAEIQALTSQGSSVEEMIASLKAEVEVIKQEQQAVHSEMLLRVQRLMQDLNKLTCQVATLKNNASTERTCCPVNWVEHQDSCYWFSRSGMPWAEAEKHCQLENAHLVVINSREEQNFVQEHLSFAYTWMGLSDREGAWKWVDGTDYETGFQNWKPGQPDDWQGHGLGGGEDCAHFHPDGRWNDDVCQRPYYWVCEAGLTQASQESH
glycan array binding signal (z-score) [1]: -0.427 | glycan array binding signal (z-score) [2]: -0.411 | glycan array binding signal (z-score) [3]: -0.404 | glycan array binding signal (z-score) [4]: -0.424 | glycan array binding signal (z-score) [5]: -0.394 | glycan array binding signal (z-score) [6]: -0.405 | glycan array binding signal (z-score) [7]: -0.12 | glycan array binding signal (z-score) [8]: -0.328 | glycan array binding signal (z-score) [9]: 0.544 | glycan array binding signal (z-score) [10]: -0.266 | glycan array binding signal (z-score) [11]: -0.408 | glycan array binding signal (z-score) [12]: -0.343 | glycan array binding signal (z-score) [13]: -0.325 | glycan array binding signal (z-score) [14]: -0.325 | glycan array binding signal (z-score) [15]: -0.384 | glycan array binding signal (z-score) [16]: -0.343 | glycan array binding signal (z-score) [17]: -0.319 | glycan array binding signal (z-score) [18]: -0.297 | glycan array binding signal (z-score) [19]: -0.329 | glycan array binding signal (z-score) [20]: -0.379 | glycan array binding signal (z-score) [21]: -0.397 | glycan array binding signal (z-score) [22]: -0.376 | glycan array binding signal (z-score) [23]: -0.341 | glycan array binding signal (z-score) [24]: -0.379 | glycan array binding signal (z-score) [25]: -0.186 | glycan array binding signal (z-score) [26]: -0.378 | glycan array binding signal (z-score) [27]: -0.424 | glycan array binding signal (z-score) [28]: -0.432 | glycan array binding signal (z-score) [29]: -0.429 | glycan array binding signal (z-score) [30]: -0.396 | glycan array binding signal (z-score) [31]: 1.57 | glycan array binding signal (z-score) [32]: 0.521 | glycan array binding signal (z-score) [33]: -0.351 | glycan array binding signal (z-score) (Gal(b1-4)GlcNAc6P): -0.414 | glycan array binding signal (z-score) (Gal(b1-6)Gal): -0.366 | glycan array binding signal (z-score) (Gal3S(b1-3)GalNAc): -0.35 | glycan array binding signal (z-score) (Gal3S(b1-3)GlcNAc): -0.398 | glycan array binding signal (z-score) [34]: -0.357
